# Data reported in patent publication US12479847B2 (DANA-FARBER CANCER INSTITUTE, INC., priority 2019, dated 2025).
# Target: human LRRK2(G2019S) kinase (Homo sapiens, UniProt Q5S007, G2019S)
# Assay: biochemical
# Experimental: Assay kits from Promega™ Corporation were used according to instructions and adapted as outlined herein. Test compounds were generally prepared with 1:3 serial dilutions for 12 concentrations (from 50 μM to 0.01 nM) ATP competition experiments. The kinase reaction was performed with kinase reaction buffer (40 mM Tris base pH 7.4, 20 mM MgCl2, 0.5 mM dithiothreitol), 0.1 mg/ml bovine serum albumin, distilled H2O). The reaction mixtures contained Pure ATP solution (10 μM), specific substrate (0.2 μg), and (human LRRK2 kinase (25 ng)) or (human LRRK2(G2019S) kinase (16 ng)), in a total assay volume of 5 μl after the manufacturer's protocol. In brief, the kinase reactions were started by addition of ATP to the kinase reaction mixture. The resulting mixture was incubated for 60 minutes at 25° C., and then stopped by adding 5 μl of ADP-Glo™ reagent. After incubation at room temperature in the dark for 40 minutes, 10 μl of kinase detection reagent was added per well, and the mixture was incubated for 10 minutes. Luminescence was measured using a Synergy™NEO2 plate reader (BioTek®) with an integration time of 1 second per well. Positive and negative controls were performed in 0.5% DMSO in the presence and absence of LRRK2 kinases. Curve fitting and data presentations were performed using GraphPad Prism version 5.0 (GraphPad Software, Inc.). The LRKK2 and LRRK2(G2019S) assay with inventive compounds 1-64 are summarized in the table below (Table 1), wherein: […]
row,Compound,IC50 [µM]
1,"CCCCNc1nc(Nc2ccc(C(=O)N3CCOCC3)c3c2OCCO3)nc2[nH]cc(Cl)c12 [Compound 74, (8-((4-(butylamino)-5-chloro-7H-pyrrolo[2,3-d]pyrimidin-2-yl)amino)-2,3-dihydrobenzo[b][1,4]dioxin-5-yl)(morpholino)methanone]",0.01 to 0.1
2,"COCCNc1nc(Nc2ccc(S(=O)(=O)N3CCOCC3)cc2OC)nc2[nH]cc(Cl)c12 [Compound 21, 5-chloro-N2-(2-methoxy-4-(morpholinosulfonyl)phenyl)-N4-(2-methoxyethyl)-7H-pyrrolo[2,3-d]pyrimidine-2,4-diamine]",0.01 to 0.1
3,"CCNc1nc(Nc2ccc(S(=O)(=O)N3CCC(N4CCOCC4)CC3)cc2OC)nc2[nH]cc(Cl)c12 [Compound 15, 5-chloro-N4-ethyl-N2-(2-methoxy-4-((4-morpholinopiperidin-1-yl)sulfonyl)phenyl)-7H-pyrrolo[2,3-d]pyrimidine-2,4-diamine]",0.01 to 0.1
4,"COc1cc(S(=O)(=O)N2CCOCC2)ccc1Nc1nc(NCCS(C)(=O)=O)c2c(Cl)c[nH]c2n1 [Compound 68, 5-chloro-N2-(2-methoxy-4-(morpholinosulfonyl)phenyl)-N4-(2-(methylsulfonyl)ethyl)-7H-pyrrolo[2,3-d]pyrimidine-2,4-diamine]",< 0.01
5,"CCCNc1nc(Nc2ccc(S(=O)(=O)N3CCC(N4CCOCC4)CC3)cc2OC)nc2[nH]cc(Cl)c12 [Compound 19, 5-chloro-N2-(2-methoxy-4-((4-morpholinopiperidin-1-yl)sulfonyl)phenyl)-N4-propyl-7H-pyrrolo[2,3-d]pyrimidine-2,4-diamine]",0.1 to 1
6,"COc1cc(S(=O)(=O)N2CCC(N3CCOCC3)CC2)ccc1Nc1nc(NCC2CCCC2)c2c(Cl)c[nH]c2n1 [Compound 67, 5-chloro-N4-(cyclopentylmethyl)-N2-(2-methoxy-4-((4-morpholinopiperidin-1-yl)sulfonyl)phenyl)-7H-pyrrolo[2,3-d]pyrimidine-2,4-diamine]",0.1 to 1
7,"O=C(c1ccc(Nc2nc(NC3CCCCC3)c3c(Cl)c[nH]c3n2)c2c1CCO2)N1CCOCC1 [Compound 83, (7-((5-chloro-4-(cyclohexylamino)-7H-pyrrolo[2,3-d]pyrimidin-2-yl)amino)-2,3-dihydrobenzofuran-4-yl)(morpholino)methanone]",0.01 to 0.1
8,"COc1cc(S(=O)(=O)N2CCC(N3CCOCC3)CC2)ccc1Nc1nc(NC2CC2)c2c(Cl)c[nH]c2n1 [Compound 25, 5-chloro-N4-cyclopropyl-N2-(2-methoxy-4-((4-morpholinopiperidin-1-yl)sulfonyl)phenyl)-7H-pyrrolo[2,3-d]pyrimidine-2,4-diamine]",< 0.01
9,"CCCNc1nc(Nc2ccc(S(C)(=O)=O)cc2OC)nc2[nH]cc(Cl)c12 [Compound 8, 5-chloro-N2-(2-methoxy-4-(methylsulfonyl)phenyl)-N4-propyl-7H-pyrrolo[2,3-d]pyrimidine-2,4-diamine]",0.01 to 0.1
10,"COc1cc(S(=O)(=O)N2CCC(N3CCOCC3)CC2)ccc1Nc1nc(NC(C)C)c2c(Cl)c[nH]c2n1 [Compound 87, 5-chloro-N4-isopropyl-N2-(2-methoxy-4-((4-morpholinopiperidin-1-yl)sulfonyl)phenyl)-7H-pyrrolo[2,3-d]pyrimidine-2,4-diamine]",0.01 to 0.1
11,"COc1cc(S(=O)(=O)N2CCOCC2)ccc1Nc1nc(NCC2CCCC2)c2c(Cl)c[nH]c2n1 [Compound 45, 5-chloro-N4-(cyclopentylmethyl)-N2-(2-methoxy-4-(morpholinosulfonyl)phenyl)-7H-pyrrolo[2,3-d]pyrimidine-2,4-diamine]",> 1
12,"O=C(c1ccc(Nc2nc(NC3CCC3)c3c(Cl)c[nH]c3n2)c2c1CCO2)N1CCC(N2CCOCC2)CC1 [Compound 103, (7-((5-chloro-4-(cyclobutylamino)-7H-pyrrolo[2,3-d]pyrimidin-2-yl)amino)-2,3-dihydrobenzofuran-4-yl)(4-morpholinopiperidin-1-yl)methanone]",< 0.01
13,"CCCCNc1nc(Nc2ccc(S(=O)(=O)N3CCOCC3)cc2OC)nc2[nH]cc(Cl)c12 [Compound 71, N4-butyl-5-chloro-N2-(2-methoxy-4-(morpholinosulfonyl)phenyl)-7H-pyrrolo[2,3-d]pyrimidine-2,4-diamine]",0.1 to 1
14,"CNc1nc(Nc2ccc(S(=O)(=O)N3CCOCC3)cc2OC)nc2[nH]cc(Cl)c12 [Compound 11, 5-chloro-N2-(2-methoxy-4-(morpholinosulfonyl)phenyl)-N4-methyl-7H-pyrrolo[2,3-d]pyrimidine-2,4-diamine]",< 0.01
15,"CCNc1nc(Nc2ccc(C(=O)N3CCC(N4CCOCC4)CC3)c3c2OCCO3)nc2[nH]cc(Cl)c12 [Compound 1, (8-((5-chloro-4-(ethylamino)-7H-pyrrolo[2,3-d]pyrimidin-2-yl)amino)-2,3-dihydrobenzo[b][1,4]dioxin-5-yl)(4-morpholinopiperidin-1-yl)methanone]",< 0.01
16,"O=C(c1ccc(Nc2nc(NCC3CCCC3)c3c(Cl)c[nH]c3n2)c2c1OCCO2)N1CCOCC1 [Compound 46, (8-((5-chloro-4-((cyclopentylmethyl)amino)-7H-pyrrolo[2,3-d]pyrimidin-2-yl)amino)-2,3-dihydrobenzo[b][1,4]dioxin-5-yl)(morpholino)methanone]",0.1 to 1

# Continued, values first:
row,IC50 [µM],Compound
1,0.01 to 0.1,"COc1cc(S(=O)(=O)N2CCOCC2)ccc1Nc1nc(NC2CC2)c2c(Cl)c[nH]c2n1 [Compound 24, 5-chloro-N4-cyclopropyl-N2-(2-methoxy-4-(morpholinosulfonyl)phenyl)-7H-pyrrolo[2,3-d]pyrimidine-2,4-diamine]"
2,0.01 to 0.1,COc1cc(P2(=O)CCN(C3CCOCC3)CC2)ccc1Nc1nc(NC2CCCC2)c2c(Cl)c[nH]c2n1 [Compound 79]
3,0.1 to 1,"COc1cc(S(=O)(=O)N2CCOCC2)ccc1Nc1nc(N[C@H]2CCOC2)c2c(Cl)c[nH]c2n1 [Compound 60, (S)-5-chloro-N2-(2-methoxy-4-(morpholinosulfonyl)phenyl)-N4-(tetrahydrofuran-3-yl)-7H-pyrrolo[2,3-d]pyrimidine-2,4-diamine]"
4,0.1 to 1,"COc1cc(S(C)(=O)=O)ccc1Nc1nc(NC2CCC2)c2c(Cl)c[nH]c2n1 [Compound 29, 5-chloro-N4-cyclobutyl-N2-(2-methoxy-4-(methylsulfonyl)phenyl)-7H-pyrrolo[2,3-d]pyrimidine-2,4-diamine]"
5,0.1 to 1,"COc1cc(S(=O)(=O)N2CCOCC2)ccc1Nc1nc(NC2CCC2)c2c(Cl)c[nH]c2n1 [Compound 7, 5-chloro-N4-cyclobutyl-N2-(2-methoxy-4-(morpholinosulfonyl)phenyl)-7H-pyrrolo[2,3-d]pyrimidine-2,4-diamine]"
6,0.01 to 0.1,"COc1cc(P2(=O)CCN(C3CC3)CC2)ccc1Nc1nc(NCC(C)C)c2c(Cl)c[nH]c2n1 [Compound 96, 4-(4-((5-chloro-4-(isobutylamino)-7H-pyrrolo[2,3-d]pyrimidin-2-yl)amino)-3-methoxyphenyl)-1-cyclopropyl-1,4-azaphosphinane 4-oxide]"
7,< 0.01,"COc1cc(P2(=O)CCN(C(C)=O)CC2)ccc1Nc1nc(NC2CC2)c2c(Cl)c[nH]c2n1 [Compound 91, 1-(4-(4-((5-chloro-4-(cyclopropylamino)-7H-pyrrolo[2,3-d]pyrimidin-2-yl)amino)-3-methoxyphenyl)-4-oxido-1,4-azaphosphinan-1-yl)ethan-1-one]"
